Assay [1] has as its target ADP-ribosylation factor 6 (Arf6) (human (endogenous in MCF10A)) (UniProt P62330). Description: co-IP; immunoprecipitation of endogenous Arf6 from MCF10A lysates (1% Triton X-100, 100 mM NaCl, 50 mM Tris-HCl pH 7.4), blots for GGA3 and Rabaptin5; cells transfected with control or ErbB3 siRNA, PQ or vehicle for 10 min.
The target of assay [2] is ErbB3 (HER3) receptor (human (endogenous in MCF10A)) (UniProt P21860). The assay can be described thus: co-IP; immunoprecipitation of endogenous ErbB3 (antibody 2F12) from MCF10A lysates (1% NP-40, 0.5% deoxycholate, 0.1% SDS, 150 mM NaCl, 50 mM Tris pH 8.0, 1 mM EDTA), blots for GGA3 and Rabaptin5; with or without 30 min primaquine (PQ); IgG as negative control.
The target in the next assay is Flag-ErbB3 (wild type) (UniProt P21860). The assay can be described thus: co-IP; GGA3 overexpressed with or without ErbB3 WT or LL866/7AA in HEK293T cells; immunoprecipitation of ErbB3, blot for GGA3.
Assay [3] deals with LL866/7AA mutant Flag-ErbB3 (UniProt P21860). The assay is described as above.
Assay [4] addresses Arf6 (ectopically expressed) (UniProt P62330). Description: co-IP; Arf6, GGA3 and Rabaptin5 expressed ectopically in HEK293T cells with or without WT or LL866/7AA ErbB3; immunoprecipitation of Arf6, blots for ErbB3, GGA3 and Rabaptin5.

Amino acid sequences for entries named in this document (tags omitted). A change or cut given only in a name is not applied to a line headed by its entry. Chains listed by the source or under a name are the forms on record and can include a tag or linker. Residues count along the entry.
UniProt P62330: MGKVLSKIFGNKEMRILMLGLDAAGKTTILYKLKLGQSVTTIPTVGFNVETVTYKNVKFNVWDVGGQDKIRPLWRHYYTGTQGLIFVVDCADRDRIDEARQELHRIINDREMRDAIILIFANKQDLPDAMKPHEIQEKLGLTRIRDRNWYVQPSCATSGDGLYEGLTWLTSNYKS
ErbB3 (HER3) receptor (human (endogenous in MCF10A)) (P21860, residues 20-1342): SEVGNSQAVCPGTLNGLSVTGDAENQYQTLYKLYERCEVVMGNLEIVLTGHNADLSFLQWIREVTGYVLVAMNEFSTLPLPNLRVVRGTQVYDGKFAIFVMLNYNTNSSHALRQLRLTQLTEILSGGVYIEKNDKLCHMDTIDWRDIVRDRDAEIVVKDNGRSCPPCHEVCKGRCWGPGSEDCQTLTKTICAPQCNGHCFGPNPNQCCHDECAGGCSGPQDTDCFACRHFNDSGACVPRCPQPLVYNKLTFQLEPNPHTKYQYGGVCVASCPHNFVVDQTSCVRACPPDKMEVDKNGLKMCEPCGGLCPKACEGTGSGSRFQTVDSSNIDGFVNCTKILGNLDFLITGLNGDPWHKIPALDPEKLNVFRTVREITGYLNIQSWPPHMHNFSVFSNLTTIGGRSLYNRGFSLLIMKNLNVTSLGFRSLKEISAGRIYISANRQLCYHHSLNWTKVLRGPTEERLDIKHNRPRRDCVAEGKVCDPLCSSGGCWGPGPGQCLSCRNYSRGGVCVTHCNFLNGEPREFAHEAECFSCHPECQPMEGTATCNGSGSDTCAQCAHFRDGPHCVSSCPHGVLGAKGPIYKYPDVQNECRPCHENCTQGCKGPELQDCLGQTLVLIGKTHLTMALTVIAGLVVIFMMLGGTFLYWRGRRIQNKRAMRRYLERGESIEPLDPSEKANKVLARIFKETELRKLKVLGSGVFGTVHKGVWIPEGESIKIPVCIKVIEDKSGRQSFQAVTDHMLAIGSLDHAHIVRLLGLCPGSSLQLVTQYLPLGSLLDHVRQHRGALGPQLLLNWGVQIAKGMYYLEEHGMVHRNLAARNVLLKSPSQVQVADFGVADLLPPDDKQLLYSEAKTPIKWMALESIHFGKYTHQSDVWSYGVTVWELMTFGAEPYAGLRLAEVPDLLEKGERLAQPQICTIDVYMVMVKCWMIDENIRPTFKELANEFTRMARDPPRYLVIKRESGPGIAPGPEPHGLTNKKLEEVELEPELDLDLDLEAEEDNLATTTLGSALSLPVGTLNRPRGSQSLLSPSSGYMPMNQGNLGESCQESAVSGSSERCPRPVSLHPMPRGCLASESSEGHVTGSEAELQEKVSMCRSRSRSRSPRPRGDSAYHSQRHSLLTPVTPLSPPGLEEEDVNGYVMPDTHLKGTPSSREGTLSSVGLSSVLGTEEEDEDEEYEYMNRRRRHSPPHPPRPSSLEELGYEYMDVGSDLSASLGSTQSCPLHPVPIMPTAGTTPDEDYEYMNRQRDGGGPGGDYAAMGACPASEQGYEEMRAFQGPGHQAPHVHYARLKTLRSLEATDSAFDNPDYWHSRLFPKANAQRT
LL866/7AA mutant Flag-ErbB3 (P21860, form named): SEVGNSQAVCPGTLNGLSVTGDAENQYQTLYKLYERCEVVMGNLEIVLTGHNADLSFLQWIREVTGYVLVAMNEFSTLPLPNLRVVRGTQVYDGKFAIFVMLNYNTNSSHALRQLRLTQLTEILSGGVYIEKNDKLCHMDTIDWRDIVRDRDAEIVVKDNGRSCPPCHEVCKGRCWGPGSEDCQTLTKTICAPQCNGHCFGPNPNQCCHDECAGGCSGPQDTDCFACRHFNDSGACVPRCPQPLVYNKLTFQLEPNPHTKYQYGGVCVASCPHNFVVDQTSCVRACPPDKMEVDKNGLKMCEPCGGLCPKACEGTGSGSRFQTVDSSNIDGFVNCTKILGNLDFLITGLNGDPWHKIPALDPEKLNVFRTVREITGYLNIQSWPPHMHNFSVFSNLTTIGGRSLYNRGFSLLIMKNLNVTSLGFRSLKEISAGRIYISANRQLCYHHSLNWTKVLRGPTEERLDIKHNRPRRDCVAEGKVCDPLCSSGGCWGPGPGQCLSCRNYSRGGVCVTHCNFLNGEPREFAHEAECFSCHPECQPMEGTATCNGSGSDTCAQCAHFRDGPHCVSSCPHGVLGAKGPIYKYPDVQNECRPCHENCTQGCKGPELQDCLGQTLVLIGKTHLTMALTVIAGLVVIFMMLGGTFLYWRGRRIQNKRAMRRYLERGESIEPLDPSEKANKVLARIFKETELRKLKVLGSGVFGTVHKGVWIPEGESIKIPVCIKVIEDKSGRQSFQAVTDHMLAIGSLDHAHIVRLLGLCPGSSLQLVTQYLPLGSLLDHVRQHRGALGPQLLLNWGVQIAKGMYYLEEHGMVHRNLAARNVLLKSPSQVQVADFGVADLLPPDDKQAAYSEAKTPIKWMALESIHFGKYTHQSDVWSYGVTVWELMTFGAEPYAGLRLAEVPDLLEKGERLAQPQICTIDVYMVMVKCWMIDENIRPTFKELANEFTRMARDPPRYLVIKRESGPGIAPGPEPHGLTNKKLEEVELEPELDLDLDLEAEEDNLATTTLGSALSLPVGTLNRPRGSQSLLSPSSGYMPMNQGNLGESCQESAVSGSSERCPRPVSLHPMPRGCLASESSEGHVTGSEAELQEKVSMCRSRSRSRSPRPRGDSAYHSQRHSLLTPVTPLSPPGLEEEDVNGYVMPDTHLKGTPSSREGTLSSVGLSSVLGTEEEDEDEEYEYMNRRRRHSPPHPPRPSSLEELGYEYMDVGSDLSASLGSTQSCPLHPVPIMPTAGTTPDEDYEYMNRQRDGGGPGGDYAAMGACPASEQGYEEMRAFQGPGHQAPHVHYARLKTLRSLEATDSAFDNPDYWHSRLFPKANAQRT

Results are given in words; binding and its absence hold for the method and conditions named. In cells and extracts the contact can be indirect. Some results given as binding are weak or reduced against the parent protein; the word gives no strength.

Four molecules from article PMC12679992 can be followed below.

B1: Golgi-associated gamma adaptin ear containing ADP-ribosylation factor-binding protein 3 (GGA3) (protein, UniProt Q9NZ52 1-723)
chain: MAEAEGESLESWLNKATNPSNRQEDWEYIIGFCDQINKELEGPQIAVRLLAHKIQSPQEWEALQALTVLEACMKNCGRRFHNEVGKFRFLNELIKVVSPKYLGDRVSEKVKTKVIELLYSWTMALPEEAKIKDAYHMLKRQGIVQSDPPIPVDRTLIPSPPPRPKNPVFDDEEKSKLLAKLLKSKNPDDLQEANKLIKSMVKEDEARIQKVTKRLHTLEEVNNNVRLLSEMLLHYSQEDSSDGDRELMKELFDQCENKRRTLFKLASETEDNDNSLGDILQASDNLSRVINSYKTIIEGQVINGEVATLTLPDSEGNSQCSNQGTLIDLAELDTTNSLSSVLAPAPTPPSSGIPILPPPPQASGPPRSRSSSQAEATLGPSSTSNALSWLDEELLCLGLADPAPNVPPKESAGNSQWHLLQREQSDLDFFSPRPGTAACGASDAPLLQPSAPSSSSSQAPLPPPFPAPVVPASVPAPSAGSSLFSTGVAPALAPKVEPAVPGHHGLALGNSALHHLDALDQLLEEAKVTSGLVKPTTSPLIPTTTPARPLLPFSTGPGSPLFQPLSFQSQGSPPKGPELSLASIHVPLESIKPSSALPVTAYDKNGFRILFHFAKECPPGRPDVLVVVVSMLNTAPLPVKSIVLQAAVPKSMKVKLQPPSGTELSPFSPIQPPAAITQVMLLANPLKEKVRLRYKLTFALGEQLSTEVGEVDQFPPVEQWGNL
On to B1, for which the binding result in assay [1] and in assay [2] was “binds” in each case.

B2: GGA3 (overexpressed) (protein, UniProt Q9NZ52 1-723)
chain: B1 chain
As for B2, the binding entry is “binds” in the assay with Flag-ErbB3 (wild type), “no binding” in assay [3] and “binds” in assay [4].

B3: Rab GTPase-binding effector protein 1 (Rabaptin5) (protein, UniProt Q15276 1-862)
chain: MAQPGPASQPDVSLQQRVAELEKINAEFLRAQQQLEQEFNQKRAKFKELYLAKEEDLKRQNAVLQAAQDDLGHLRTQLWEAQAEMENIKAIATVSENTKQEAIDEVKRQWREEVASLQAVMKETVRDYEHQFHLRLEQERTQWAQYRESAEREIADLRRRLSEGQEEENLENEMKKAQEDAEKLRSVVMPMEKEIAALKDKLTEAEDKIKELEASKVKELNHYLEAEKSCRTDLEMYVAVLNTQKSVLQEDAEKLRKELHEVCHLLEQERQQHNQLKHTWQKANDQFLESQRLLMRDMQRMEIVLTSEQLRQVEELKKKDQEDDEQQRLNKRKDHKKADVEEEIKIPVVCALTQEESSAQLSNEEEHLDSTRGSVHSLDAGLLLPSGDPFSKSDNDMFKDGLRRAQSTDSLGTSGSLQSKALGYNYKAKSAGNLDESDFGPLVGADSVSENFDTASLGSLQMPSGFMLTKDQERAIKAMTPEQEETASLLSSVTQGMESAYVSPSGYRLVSETEWNLLQKEVHNAGNKLGRRCDMCSNYEKQLQGIQIQEAETRDQVKKLQLMLRQANDQLEKTMKDKQELEDFIKQSSEDSSHQISALVLRAQASEILLEELQQGLSQAKRDVQEQMAVLMQSREQVSEELVRLQKDNDSLQGKHSLHVSLQQAEDFILPDTTEALRELVLKYREDIINVRTAADHVEEKLKAEILFLKEQIQAEQCLKENLEETLQLEIENCKEEIASISSLKAELERIKVEKGQLESTLREKSQQLESLQEIKISLEEQLKKETAAKATVEQLMFEEKNKAQRLQTELDVSEQVQRDFVKLSQTLQVQLERIRQADSLERIRAILNDTKLTDINQLPET
As to B3, the binding entry in assay [1] and in assay [2] was “binds” throughout.

B4: Rabaptin5 (ectopically expressed) (protein, UniProt Q15276 1-862)
chain: B3 chain
With B4, the binding result in assay [4] is “binds”.
